Binding data for one molecule are collected here from PMC9462479.

Results are given in words; binding and its absence hold for the method and conditions named. Binding seen in cells or lysates may run through a third protein. Some binding calls cover weakened binding; strength is not graded here. Tags and fused reporters may be left off the sequences shown.

The target in this assay is T1, myc-tagged human ARMC5(L754P) (human) (UniProt Q96C12).
T1 sequence: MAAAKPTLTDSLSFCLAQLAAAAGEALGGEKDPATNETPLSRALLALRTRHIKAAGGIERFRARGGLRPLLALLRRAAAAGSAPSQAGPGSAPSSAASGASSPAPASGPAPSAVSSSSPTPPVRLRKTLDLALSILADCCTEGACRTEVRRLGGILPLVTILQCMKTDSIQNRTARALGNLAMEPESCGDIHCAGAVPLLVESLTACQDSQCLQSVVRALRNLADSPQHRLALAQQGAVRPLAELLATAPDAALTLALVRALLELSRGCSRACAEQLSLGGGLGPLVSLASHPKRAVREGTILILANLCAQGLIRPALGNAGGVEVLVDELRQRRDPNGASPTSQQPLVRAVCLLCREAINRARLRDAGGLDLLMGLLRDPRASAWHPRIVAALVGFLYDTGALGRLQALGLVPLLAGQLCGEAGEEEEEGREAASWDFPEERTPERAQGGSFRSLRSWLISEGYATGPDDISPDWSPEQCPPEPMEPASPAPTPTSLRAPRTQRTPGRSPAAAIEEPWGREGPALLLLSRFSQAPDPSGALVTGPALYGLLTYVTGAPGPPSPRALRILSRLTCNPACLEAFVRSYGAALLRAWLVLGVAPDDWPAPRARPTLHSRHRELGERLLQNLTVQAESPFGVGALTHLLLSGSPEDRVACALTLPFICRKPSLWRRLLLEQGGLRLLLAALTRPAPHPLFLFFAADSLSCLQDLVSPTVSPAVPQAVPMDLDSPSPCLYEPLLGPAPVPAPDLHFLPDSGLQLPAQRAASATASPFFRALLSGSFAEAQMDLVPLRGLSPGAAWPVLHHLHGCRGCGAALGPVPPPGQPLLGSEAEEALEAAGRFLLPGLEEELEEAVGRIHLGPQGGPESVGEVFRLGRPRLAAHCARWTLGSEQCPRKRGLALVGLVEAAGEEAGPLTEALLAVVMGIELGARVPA
The assay can be described thus: co-IP; Myc IP: HEK293T cells transfected, lysed in TNE buffer (150 mM NaCl, 1% NP40), anti-myc antibody and Protein G Sepharose, blotted with anti-FLAG.

B1: FLAG-SREBF1(N), N-terminus of mouse SREBF1, from pcDNA3.1-FLAG-Srebf1(N) in HEK293T (domain or fragment, UniProt Q9WTN3 2-453)
chain: DELAFGEAALEQTLAEMCELDTAVLNDIEDMLQLINNQDSDFPGLFDAPYAGGETGDTGPSSPGANSPESFSSASLASSLEAFLGGPKVTPAPLSPPPSAPAALKMYPSVSPFSPGPGIKEEPVPLTILQPAAPQPSPGTLLPPSFPAPPVQLSPAPVLGYSSLPSGFSGTLPGNTQQPPSSLPLAPAPGVLPTPALHTQVQSLASQQPLPASAAPRTNTVTSQVQQVPVVLQPHFIKADSLLLTAVKTDAGATVKTAGISTLAPGTAVQAGPLQTLVSGGTILATVPLVVDTDKLPIHRLAAGSKALGSAQSRGEKRTAHNAIEKRYRSSINDKIVELKDLVVGTEAKLNKSAVLRKAIDYIRFLQHSNQKLKQENLTLRSAHKSKSLKDLVSACGSGGGTDVSMEGMKPEVVETLTPPPSDAGSPSQSSPLSFGSRASSSGGSDSEPDSP
In the case of B1, the binding result is listed as “binds”.
